The text below walks through data of PMC4617706.

The chains behind the UniProt entries cited, without tags or fusion partners. Where a name states a change or a piece, a line headed by the entry shows the natural chain unless it says otherwise.
UniProt Q9Y2I6: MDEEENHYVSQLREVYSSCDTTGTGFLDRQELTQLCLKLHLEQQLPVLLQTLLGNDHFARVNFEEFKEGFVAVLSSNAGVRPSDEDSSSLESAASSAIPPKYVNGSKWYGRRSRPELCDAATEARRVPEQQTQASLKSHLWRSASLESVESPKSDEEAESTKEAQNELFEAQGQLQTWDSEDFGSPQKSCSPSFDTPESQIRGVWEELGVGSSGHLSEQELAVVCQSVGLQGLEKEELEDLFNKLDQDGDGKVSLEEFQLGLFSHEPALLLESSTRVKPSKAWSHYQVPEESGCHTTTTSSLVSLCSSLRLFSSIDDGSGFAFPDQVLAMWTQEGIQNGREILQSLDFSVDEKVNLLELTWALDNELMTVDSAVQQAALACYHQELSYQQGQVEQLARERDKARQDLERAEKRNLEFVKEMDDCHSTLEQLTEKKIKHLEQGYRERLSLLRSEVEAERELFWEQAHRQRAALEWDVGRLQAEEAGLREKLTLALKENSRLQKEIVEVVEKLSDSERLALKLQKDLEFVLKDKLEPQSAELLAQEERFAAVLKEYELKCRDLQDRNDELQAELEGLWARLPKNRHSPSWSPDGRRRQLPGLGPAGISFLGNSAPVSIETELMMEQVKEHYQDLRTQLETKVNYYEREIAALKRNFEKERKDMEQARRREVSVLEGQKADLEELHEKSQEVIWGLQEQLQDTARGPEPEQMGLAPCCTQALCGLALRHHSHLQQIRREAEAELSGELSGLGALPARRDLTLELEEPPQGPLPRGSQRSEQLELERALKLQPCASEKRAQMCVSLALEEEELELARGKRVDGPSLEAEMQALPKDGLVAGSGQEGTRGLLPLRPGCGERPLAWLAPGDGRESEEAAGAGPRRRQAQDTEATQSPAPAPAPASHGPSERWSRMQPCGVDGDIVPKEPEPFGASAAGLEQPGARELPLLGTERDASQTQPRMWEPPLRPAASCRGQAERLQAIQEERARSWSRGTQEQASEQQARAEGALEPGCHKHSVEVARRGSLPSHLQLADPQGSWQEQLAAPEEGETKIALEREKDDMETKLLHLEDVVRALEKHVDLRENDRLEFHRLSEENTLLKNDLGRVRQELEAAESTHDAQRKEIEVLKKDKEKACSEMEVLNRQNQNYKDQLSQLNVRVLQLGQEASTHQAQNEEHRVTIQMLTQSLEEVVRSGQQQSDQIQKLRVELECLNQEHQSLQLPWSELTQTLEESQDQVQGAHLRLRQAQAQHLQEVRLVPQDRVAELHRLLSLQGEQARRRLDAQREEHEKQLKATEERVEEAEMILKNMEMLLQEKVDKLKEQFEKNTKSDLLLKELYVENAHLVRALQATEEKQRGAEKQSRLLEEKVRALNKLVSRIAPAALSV

These are yes or no findings as the source states them, for the method shown. Some entries that bind do so weakly or less than the wild type.

Experiment [1] has as its target NINL^isoB (binary yeast two-hybrid construct) (human) (UniProt Q9Y2I6). Put plainly: two-hybrid; binary co-transformation in yeast, GAL4-based; growth on SD/-Trp/-Leu/-His and SD/-Trp/-Leu/-His/-Ade, beta-galactosidase filter lift assay.
The target of experiment [2] is NINL^isoA (binary yeast two-hybrid construct) (human) (UniProt Q9Y2I6). The description is as above.

B1: DZANK1 ZNF_RBZ domains (244-317aa), two-hybrid deletion construct (domain or fragment, UniProt Q9NVP4 244-317)
chain: PPEGAQMGLCAECRSLVPMNTPICVVCEAPLALQLQPQASLHLKEKVICRACGTGNPAHLRYCVTCEGALPSSQ
Turning to B1, the binding entry in experiment [1] and in experiment [2] was “binds” in each case.
